# According to the supplement of paper PMC12645437, “Orthogonal IMiD-Degron Pairs Induce Selective Protein Degradation in Cells” (ACS Chemical Biology, 2025):
# This is one part of the list.
# B1: Q9UKT9 (peptide)
# chain: FVCEICGRLFTQKGNLLRHIKL
# B2: Q9UKT9 (peptide)
# chain: FSCSVCGHTFTQKGNLLRHIKL
# B3: Q9UKT9 (peptide)
# chain: FFCNQCGHIFTQKGNLLRHIKL
# B4: Q9UKT9 (peptide)
# chain: LNCPICGFGCTQKGNLLRHIKL
# B5: Q9UKT9 (peptide)
# chain: FHCPICGRKFTQKGNLLRHIKL
# B6: Q9UKT9 (peptide)
# chain: FLCPICGRCFTQKGNLLRHIKL
# B7: Q9UKT9 (peptide)
# chain: LVCNQCGFICTQKGNLLRHIKL
# B8: Q9UKT9 (peptide)
# chain: FMCSVCGHKFTQKGNLLRHIKL
# B9: Q9UKT9 (peptide)
# chain: FGCEVCGAIFTQKGNLLRHIKL
# B10: Q9UKT9 (peptide)
# chain: FMCPICGHVFTQKGNLLRHIKL
# B11: Q9UKT9 (peptide)
# chain: FECSVCGHYFTQKGNLLRHIKL
# B12: Q9UKT9 (peptide)
# chain: FWCEICGREFTQKGNLLRHIKL
# B13: Q9UKT9 (peptide)
# chain: FGCNICGAFFTQKGNLLRHIKL
# B14: Q9UKT9 (peptide)
# chain: FFCPICGRVFTQKGNLLRHIKL
# Target: no compound (DMSO)
# Assay: log2 fold change of degron read counts, EGFP-low vs EGFP+ sorted cells; higher = lower degron-EGFP level without compound (poor expression or instability)
# Conditions: compound: DMSO control; 18 h
# 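Note: jurkat cells carrying a lentiviral library of mutant zinc finger degrons fused to EGFP plus mCherry, mCherry+ cells FACS sorted, degron abundance counted by next-generation sequencing.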
row,Sequence,log2 fold change of degron read counts
1,B1,-0.245
2,B2,-0.887
3,B3,0.984
4,B4,0.586
5,B5,-2.23
6,B6,-0.49
7,B7,0.916
8,B8,-0.512
9,B9,-0.567
10,B10,-0.0172
11,B11,-0.658
12,B12,-1.31
13,B13,0.0684
14,B14,0.0183
